Laboratory results: a compilation of properties of binary mixtures (doi:10.1039/c3ra40303c)
Some of these densities may be calculated back from excess volumes.

Experiment: xn = mol fraction of the nth substance listed
Details: 101 kPa

CC(O)C(=O)[O-].C[N+](C)(C)CCO + CCO
mass density [kg/m3]
Details	x2 = 0	x2 = 0.1039	x2 = 0.2011	x2 = 0.2996	x2 = 0.3999	x2 = 0.5003	x2 = 0.601	x2 = 0.7013	x2 = 0.7987	x2 = 0.8996
293.15 K	1145.6	1135.6	1121	–	1086.2	1062.7	1034.4	–	–	885.7
298.15 K	1142.3	1132.2	1117.7	1101.6	1082.8	1059.4	1030.9	994.3	–	881.7
303.15 K	1139	1128.9	1114.5	1098.4	1079.6	1056	–	990.7	943.9	–
308.15 K	1135.8	1125.8	–	1095.2	1076.3	1052.7	1024.1	987.2	940.2	874
313.15 K	1132.7	1122.6	1108.2	1092	1073.1	1049.4	1020.7	983.6	936.5	869.9
318.15 K	–	1119.6	1105.1	1088.8	1069.9	1046.1	–	980	932.8	865.8
323.15 K	1126.5	–	1102	1085.7	1066.7	–	1014	976.5	–	861.8
328.15 K	1123.5	–	1098.9	1082.5	1063.5	1039.6	–	973	–	857.9
333.15 K	1120.5	–	1095.8	1079.4	1060.3	1036.4	–	969.5	921.7	853.9
338.15 K	1117.5	1107.4	1092.7	1076.3	–	1033	1003.9	966	918	849.9
343.15 K	1114.5	1104.4	1089.7	1073.2	1054	1029.8	1000.6	962.5	914.4	845.8

CC(O)C(=O)[O-].C[N+](C)(C)CCO + O
mass density [kg/m3]
Details	x2 = 0	x2 = 0.0992	x2 = 0.2048	x2 = 0.3008	x2 = 0.4038	x2 = 0.5026	x2 = 0.5858	x2 = 0.701	x2 = 0.7993	x2 = 0.8998
293.15 K	1145.6	1145.7	1144.9	1144.1	–	–	–	1133.1	–	–
298.15 K	–	1142.2	1141.5	1140.7	–	–	–	1129.7	–	1089.9
303.15 K	1139	–	1138.2	1137.5	–	–	–	–	1115.2	1086.9
308.15 K	1135.8	1135.7	1135	–	–	–	–	1123.1	1111.9	–
313.15 K	1132.7	1132.6	1131.9	–	–	–	–	1119.8	1108.7	–
318.15 K	1129.6	1129.5	1128.8	–	–	–	1122.5	1116.5	–	1077.9
323.15 K	1126.5	1126.4	1125.7	–	–	–	1119.3	–	–	1074.9
328.15 K	1123.5	1123.3	1122.6	1121.8	–	–	1116.1	1110	–	1071.7
333.15 K	1120.5	1120.2	–	–	–	–	1112.9	–	1095.6	1068.7
338.15 K	1117.5	1117.2	1116.4	1115.6	–	–	1109.6	1103.5	1092.5	1065.4
343.15 K	1114.5	1114.1	1113.3	1112.5	–	–	–	1100.2	1089.1	1062.2
348.15 K	1111.5	1111.1	1110.3	1109.5	1108	1105.7	1103.3	1096.9	1085.7	–
353.15 K	1108.5	–	1107.3	1106.4	1104.9	1102.6	1100.1	1093.7	–	–
